About 110 (3.4%) of roughly 3,200 compounds showed an effect of 50% or more. Some of the results follow.
system: T1, V. cholerae SAD30; design: species or system S. aureus MSSA476 (TSB) or V. cholerae SAD30 (LB); 384-well bacterial growth screen at 25 uM, OD600 relative to DMSO control; details: relative growth, OD600, LB; 25 µM; inhibitor
T1 construct: SAD30

Row | Compound | % of control remaining [%]
1 | CC1CC(NC(=O)CCl)C(=O)N1c1cnn(C)c1 (centres unmarked) [5-O08, 2-chloro-N-[5-methyl-1-(1-methyl-1H-pyrazol-4-yl)-2-oxopyrrolidin-3-yl]acetamide] | 97.846
2 | COc1c(C)cnc(CN2CCC(N(C)C(=O)C(C)Cl)CC2)c1C (centres unmarked) [6-A04, 2-chloro-N-{1-[(4-methoxy-3,5-dimethylpyridin-2-yl)methyl]piperidin-4-yl}-N-methylpropanamide] | 102.076
3 | N#CC(=Cc1ccccc1)C(=O)Nc1ccccc1F [8-C13, 2-cyano-N-(2-fluorophenyl)-3-phenylprop-2-enamide] | 77.1584
4 | Cc1cc(C=C(C#N)C(=O)Nc2cnn(C)c2)c(C)n1C1CCCCC1 [9-B17, 2-cyano-3-(1-cyclohexyl-2,5-dimethyl-1H-pyrrol-3-yl)-N-(1-methyl-1H-pyrazol-4-yl)prop-2-enamide] | 58.1237
5 | CCN(C(=O)CCl)c1c(N)n(Cc2ccccc2)c(=O)[nH]c1=O [4-P10, N-(6-amino-1-benzyl-2,4-dioxo-1,2,3,4-tetrahydropyrimidin-5-yl)-2-chloro-N-ethylacetamide] | 116.8
6 | CC(Cl)C(=O)NCC1CC(=O)N(c2ccccc2)C1 (centres unmarked) [7-O20, 2-chloro-N-[(5-oxo-1-phenylpyrrolidin-3-yl)methyl]propanamide] | 80.7533
7 | C=CC(=O)NCc1ccno1 [1-O07, N-[(1,2-oxazol-5-yl)methyl]prop-2-enamide] | 86.846
8 | CC(C)(C)C1CCc2c(sc(NC(=O)CCl)c2C#N)C1 (centres unmarked) [5-E17, N-(6-tert-butyl-3-cyano-4,5,6,7-tetrahydro-1-benzothiophen-2-yl)-2-chloroacetamide] | 100.536
9 | Cc1cccc(C=C(C#N)C(=O)NC(C)c2ccccc2)c1 (centres unmarked) [8-F18, 2-cyano-3-(3-methylphenyl)-N-(1-phenylethyl)prop-2-enamide] | 66.8253
10 | Cc1ccc(NC(=O)C2(CNC(=O)C(C)Cl)CCCC2)cc1C (centres unmarked) [7-J13, 1-[(2-chloropropanamido)methyl]-N-(3,4-dimethylphenyl)cyclopentane-1-carboxamide] | 74.8059
11 | CC(C1CC1)N(CC(F)(F)F)C(=O)CCl (centres unmarked) [5-P08, 2-chloro-N-(1-cyclopropylethyl)-N-(2,2,2-trifluoroethyl)acetamide] | 105.579
12 | CC(Cl)C(=O)Nc1ccccc1Cl (centres unmarked) [4-D11, 2-chloro-N-(2-chlorophenyl)propanamide] | 95.579
13 | O=C(CCl)N(c1ccccc1)C1CCCCC1 [4-L18, 2-chloro-N-cyclohexyl-N-phenylacetamide] | 111.969
14 | COc1ccc(C=C(C#N)C(=O)Nc2cccc(Cl)c2)cc1 [8-I09, N-(3-chlorophenyl)-2-cyano-3-(4-methoxyphenyl)prop-2-enamide] | 74.3032
15 | O=C(CCl)N1CCCSc2ccccc21 [4-E16, 2-chloro-1-(2,3,4,5-tetrahydro-1,5-benzothiazepin-5-yl)ethan-1-one] | 94.5439
16 | C=CC(=O)N(C)Cc1cccnc1 [3-L11, N-methyl-N-[(pyridin-3-yl)methyl]prop-2-enamide] | 90.5017
17 | Cc1cc(C(=O)CCl)c(C)n1-c1ccc(C(C)C)cc1 [10-J12, 2-chloro-1-{2,5-dimethyl-1-[4-(propan-2-yl)phenyl]-1H-pyrrol-3-yl}ethan-1-one] | 88.5252
18 | Cc1noc(C)c1CC(=O)N1CCN(C(=O)C(C)Cl)CC1 (centres unmarked) [6-F11, 2-chloro-1-{4-[2-(3,5-dimethyl-1,2-oxazol-4-yl)acetyl]piperazin-1-yl}propan-1-one] | 90.7005
19 | CC(NC(=O)CCl)c1ccc2ncsc2c1 (centres unmarked) [6-A18, N-[1-(1,3-benzothiazol-6-yl)ethyl]-2-chloroacetamide] | 101.924
20 | CCN(CC)C(=O)/C(C#N)=C/c1cc(O)c(O)c([N+](=O)[O-])c1 [9-B04, (2E)-2-cyano-3-(3,4-dihydroxy-5-nitrophenyl)-N,N-diethylprop-2-enamide] | 89.123
21 | O=C(CCl)NC(c1ccccc1)c1ccco1 (centres unmarked) [4-A08, 2-chloro-N-[(furan-2-yl)(phenyl)methyl]acetamide] | 109.726
22 | CC(C)Oc1ccccc1C=C(C#N)C(=O)Nc1ccccc1Cl [9-N20, N-(2-chlorophenyl)-2-cyano-3-[2-(propan-2-yloxy)phenyl]prop-2-enamide] | 88.3073
23 | COC(=O)c1ccccc1NC(=O)CCl [5-B12, methyl 2-(2-chloroacetamido)benzoate] | 89.6081
24 | CC(Cl)C(=O)N1CCNC(=O)C1c1cccs1 (centres unmarked) [6-J17, 4-(2-chloropropanoyl)-3-(thiophen-2-yl)piperazin-2-one] | 93.8857
25 | CC(Cl)C(=O)NC1(c2ccccc2)CCOCC1 (centres unmarked) [7-A11, 2-chloro-N-(4-phenyloxan-4-yl)propanamide] | 90.9301
26 | O=C(CCl)NCc1[nH]nc2c1CCCC2 [6-E04, 2-chloro-N-[(4,5,6,7-tetrahydro-2H-indazol-3-yl)methyl]acetamide] | 99.1942
27 | COc1cccc([C@H]2C[C@H](N(C)C(=O)C(C)Cl)C2)c1 (some centres unmarked) [6-B17, 2-chloro-N-methyl-N-[(1r,3r)-3-(3-methoxyphenyl)cyclobutyl]propanamide] | 89.6388
28 | CC(Cl)C(=O)NC1COc2ccc(F)cc21 (centres unmarked) [7-A17, 2-chloro-N-(5-fluoro-2,3-dihydro-1-benzofuran-3-yl)propanamide] | 83.2645
29 | CC(=O)N1CCc2cc(C(=O)C(C)Cl)ccc21 (centres unmarked) [10-L22, 1-(1-acetyl-2,3-dihydro-1H-indol-5-yl)-2-chloropropan-1-one] | 100.214
